Where “and” joins values, the source holds several entries; their conditions need not be identical. Identical values can stand only once. About 4,500 (2.2%) of roughly 200,000 compounds were called active. Inconclusive results, whose numbers are uncertain, are shown with a selection of clear calls. The call rests on the fitted dose curve; in most records, active means well fitted inhibition curve with a large enough effect; inconclusive means small, poorly fitted or top-dose-only effect, or effect the other way; inactive means flat fitted curve, though single readings scatter. A potency beside an inconclusive call is a rough fit, not a confirmed value.
What follows are molecules tested against Cruzipain (Trypanosoma cruzi) (UniProt P25779) (assay: qHTS Assay for Promiscuous and Specific Inhibitors of Cruzain (without detergent)). Settings: purified cruzain, Z-FR-AMC fluorescence, no detergent.
Procedure, shortened: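 Purified cruzain at 1.5 nM, pre-incubated 15 min with compound at room temperature in 100 mM sodium acetate pH 5.5, 5 mM DTT, 0.00005% Triton X-100. Reaction started with 2 uM Z-FR-AMC; AMC fluorescence increase over 60 s gives rate.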
Further: nearly all actives have a fitted effect of over 40% in size.
Potency means the concentration at half of the fitted maximal effect; tags describe the fitted curve by direction and shape.
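Wherever max response, negative = inhibition is given: plate controls were enzyme without inhibitor for no effect and buffer without enzyme for full effect.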

Chain of UniProt P25779 (P25779 whole entry, looked up): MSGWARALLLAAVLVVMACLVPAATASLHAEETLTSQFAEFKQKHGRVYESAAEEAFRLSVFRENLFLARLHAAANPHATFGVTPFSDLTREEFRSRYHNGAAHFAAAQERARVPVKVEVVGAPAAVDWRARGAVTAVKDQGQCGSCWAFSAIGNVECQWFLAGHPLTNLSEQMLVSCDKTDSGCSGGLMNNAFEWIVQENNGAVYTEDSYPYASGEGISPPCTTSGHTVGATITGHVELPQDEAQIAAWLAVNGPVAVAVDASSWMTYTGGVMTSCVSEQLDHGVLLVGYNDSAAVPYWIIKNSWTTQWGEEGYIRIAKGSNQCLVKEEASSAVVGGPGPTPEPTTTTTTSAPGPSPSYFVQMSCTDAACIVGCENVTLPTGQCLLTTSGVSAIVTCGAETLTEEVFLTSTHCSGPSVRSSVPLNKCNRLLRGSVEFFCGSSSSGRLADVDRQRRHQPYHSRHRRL

| Structure (SMILES) | Potency | max response, negative = inhibition |
| --- | --- | --- |
| Cn1cc(-c2cc3n(n2)CCC(=O)N3CCCC(=O)Nc2ccc(F)cc2F)c2ccccc21 | inconclusive: 15.8 µM [activator, partial curve] | – |
| CCCn1c(=O)c2sccc2n2c(CCCC(=O)N3CCN(c4cccc(C)c4C)CC3)nnc12 | – | inactive: 0.171% |
| O=C(NC(c1ccc(Cl)cc1)c1cc(Cl)c2cccnc2c1O)c1cccnc1 (centres undefined) | inconclusive: 39.8 µM [inhibitor, single point] | – |
| Cc1ccc(-c2cc(C(=O)NC3=NCCS3)c3ccccc3n2)cc1C | inconclusive: 39.8 µM [inhibitor, single point] | – |
| N#Cc1c(NC(=O)c2ccc(-c3ccccc3[N+](=O)[O-])o2)sc2c1CCCC2 | inconclusive: 25.1 µM [inhibitor, single point] | – |
| C[Si](C)(C/C=C/CC[C@H](O)C1=CCCCC1=O)c1ccccc1 | – | inactive: 1.3% |
| CCOC(=O)c1oc2ccc(S(=O)(=O)n3nc(-c4cc(OC)cc(OC)c4)cc3N)cc2c1C | inconclusive: 10 µM [inhibitor, partial curve] | – |
| CC(=O)Nc1ccc(-n2c(CCC(=O)O)ccc2-c2ccc(C)cc2)cc1 | inconclusive: 39.8 µM [activator, single point] | – |
| O=C(CSc1n[nH]c(-c2cccs2)n1)N1CCN(S(=O)(=O)c2ccc3ccccc3c2)CC1 | inconclusive: 39.8 µM [inhibitor, single point] | – |
| COC(=O)c1sc2ccccc2c1NC(=O)c1ccc(S(=O)(=O)N2CCCC(C)C2)cc1 (centres undefined) | inconclusive: 39.8 µM [inhibitor, single point] | – |
| CCc1ccc(Sc2cc(C(=O)NCCCOC(C)C)c3ccccc3n2)cc1 | inconclusive: 31.6 µM [activator, single point] | – |
| CCCc1cc(C(=O)N2CCN(S(=O)(=O)c3ccc(OC)c(OC)c3)CC2)cs1 | inconclusive: 25.1 µM [activator, single point] | – |
| COc1cccc(C2C(C(=O)Nc3ccccc3)=C(C)Nc3nnnn32)c1OC (centres undefined) | – | inactive: -6.18% |
| CCc1ccccc1NC(=O)C1COc2ccccc2C1 (centres undefined) | – | inactive: -13.8% |
| Cn1cnc(S(=O)(=O)N2CCC(C(=O)N3CCN(c4ccc(Cl)cc4)CC3)CC2)c1 | inconclusive: 20 µM [activator, single point] | – |
| O=C(CS(=O)(=O)c1cccc2nsnc12)Nc1cc(F)ccc1F | – | inactive: -4.96% |
| O=C(Cc1ccccc1F)N1CCC(c2nc3c(nnn3Cc3ccc(F)cc3)c(=O)[nH]2)CC1 | inconclusive: 39.8 µM [activator, single point] | – |
| O=C(N/N=C\c1cc(Cl)ccc1O)c1ccc(S(=O)(=O)N2CCCCC2)cc1 | inconclusive: 31.6 µM [inhibitor, single point] | – |
| COc1ccccc1-c1c(C)nn2c(N3CCN(c4ccccc4OC)CC3)cc(C)nc12 | inconclusive: 25.1 µM [activator, partial curve] | – |
| c1cc2c(cc1C1CCCCC1)c1c3n2CCN=C3CCC1 | inconclusive: 20 µM [inhibitor, single point] | – |
| CCn1ncc(/C=N/N=C2\CCC3C4CCc5cc(O)ccc5C4CCC23C)c1C (centres undefined) | inconclusive: 39.8 µM [activator, single point] | – |
| COc1ccc(NC(=O)Nc2c[nH]c(=O)[nH]c2=O)c(OC)c1 | – | inactive: -2.08% |

| Structure (SMILES) | Potency | max response, negative = inhibition |
| --- | --- | --- |
| c1ccc2c(-c3nn4nnnc4c4ccccc34)cccc2c1 | inconclusive: 25.1 µM [inhibitor, single point] | – |
| COC[C@@H](O)[C@@H](OC)[C@H](OC)[C@H](Cc1c(OC)cc(OC)cc1OC)OC | – | inactive: -9.31% |
| CNC(=O)Oc1ccc2c(c1)[C@@]1(C)CCN(C)[C@@H]1N2C | – | inactive: -6.26% and inactive: 3.01% |
| COC(=O)c1cccc(NC(=O)CSc2nc(=O)cc(N)n2-c2ccccc2)c1 | inconclusive: 31.6 µM [inhibitor, single point] | – |
| O=C(NCCN1CCOCC1)c1cc2c(=O)n3ccccc3nc2n1Cc1ccccc1 | inconclusive: 2.51 µM [activator, partial curve] | – |
| Cc1nc2c(C(=O)NCc3ccc4c(c3)OCO4)cnn2c(C)c1Cc1ccc(F)cc1Cl | active: 15.8 µM | – |
| COc1ccc(Cl)cc1NC(=O)CSc1nnc(COc2ccccc2)n1C | inconclusive: 25.1 µM [activator, single point] | – |
| O=C(O)C(c1ccccc1)N1CCCC1 (centres undefined) | – | inactive: 6.84% |
| COc1ccc(NC(=O)CN2C(=O)c3ccccc3Sc3ccc(C(=O)N4CCOCC4)cc32)c(OC)c1 | inconclusive: 31.6 µM [activator, single point] | – |
| O=C(Nc1ccc(Cl)c(Cl)c1)Nc1nnc(CSc2ccccc2)s1 | active: 10 µM | – |
| O=C(CSCc1nc2ccccc2[nH]1)Nc1ccc2ccccc2c1 | inconclusive: 31.6 µM [inhibitor, single point] | – |
| CC(=O)NCC(=O)OC(C(=O)c1ccccc1)c1ccc(Cl)cc1 (centres undefined) | inconclusive: 12.6 µM [inhibitor, partial curve] | – |
| COc1cc(OC)cc(C(=O)Nc2cccc(-c3cn4cccnc4n3)c2)c1 | inconclusive: 0.1 µM [activator, full curve, poor fit] | – |
| COC(=O)c1c(NC(=O)c2ccc(N(C)S(=O)(=O)c3ccc(C)cc3)cc2)sc2c1CCCC2 | active: 3.98 µM | – |
| CC1(c2ccccc2)CC(C)(C)N(C(=O)c2cc([N+](=O)[O-])cc([N+](=O)[O-])c2)c2ccccc21 (centres undefined) | active: 25.1 µM | – |
| O=S(=O)(c1ccc2[nH]c3c(c2c1)CCCCC3)N1CCN(c2cccc(Cl)c2)CC1 | active: 7.94 µM | – |
| COc1ccc(OC)c(C2C3=C(N=c4s/c(=C\c5cccc(O)c5)c(=O)n42)c2ccccc2CC3)c1 (centres undefined) | active: 3.16 µM | – |
| Cc1ccc(-c2nc(CS(=O)(=O)CC(=O)NCc3ccccc3Cl)c(C)o2)cc1 | – | inactive: -2.75% |
| O=C(C1CC(c2ccc(F)cc2)=NO1)N1CCN(c2ccccc2)CC1 (centres undefined) | inconclusive: 39.8 µM [inhibitor, single point] | – |
| CCOC(=O)c1c(NC(=O)c2ccccc2)sc2c1CCc1ccccc1-2 | inconclusive: 25.1 µM [inhibitor, single point] | – |
| COc1ccc(-n2c(CCc3ccccc3)nnc2SCC(=O)c2ccc(Cl)cc2)cc1 | inconclusive: 31.6 µM [inhibitor, single point] | – |
| COc1ccc(N2CC(NC(=O)COc3ccc4ccccc4c3)CC2=O)cc1 (centres undefined) | inconclusive: 39.8 µM [activator, single point] | – |

| Structure (SMILES) | Potency | max response, negative = inhibition |
| --- | --- | --- |
| Cc1ccccc1CNC(=O)c1ccccc1N | inconclusive: 0.0398 µM [inhibitor, full curve, poor fit] | – |
| CCn1c(SCC(=O)N2CCN(c3cccc(Cl)c3)CC2)nc2ccccc2c1=O | inconclusive: 39.8 µM [activator, single point] | – |
| O=C(Cn1c(=O)n(Cc2ccc(C(=O)NCc3ccccc3Cl)cc2)c(=O)c2ccccc21)Nc1ccc(F)c(Cl)c1 | active: 7.94 µM | – |
| Cc1ccc(NC(=S)N/N=C/c2ccc([N+](=O)[O-])s2)cc1 | inconclusive: 31.6 µM [inhibitor, single point] | – |
| COCCn1nnnc1C(c1cccs1)N1CCN(c2cc(C)ccc2C)CC1 (centres undefined) | inconclusive: 39.8 µM [activator, single point] | – |
| CCC(Cl)CC(Cl)C(Cl)C(Cl)C(Cl)C(C)Cl (centres undefined) | – | inactive: -18.9% |
| COC(=O)[C@H]1C[C@@H]1[C@H](NC(=O)c1cc(C)nn1C)c1ccccc1 | – | inactive: 0.0672% |
| O=C(NC1CCCC1)c1ccc2c(=O)n(Cc3ccccc3)c(SCc3ccccc3)nc2c1 | – | inactive: -7.03% |
| c1ccc(CCNc2nc3ccccc3n3nnnc23)cc1 | active: 12.6 µM | – |
| CCOC(=O)c1c(S(=O)(=O)N2CCC(C(=O)NCc3ccccc3OC)CC2)c(C)n(C)c1C | inconclusive: 31.6 µM [activator, single point] | – |
| Cc1cc(C)cc(OCC(=O)N(Cc2ccc(Cl)cc2)CC2CCCO2)c1 (centres undefined) | inconclusive: 25.1 µM [activator, single point] | – |
| CCOc1ccc(C(=O)Nc2ccc(NC(=S)NC(=O)CC)cc2)cc1Cl | inconclusive: 39.8 µM [inhibitor, single point] | – |
| Cc1ccc(CNC(=O)CCCCn2c(=O)c3ccccc3n(Cc3ccc(C)cc3)c2=O)cc1 | – | inactive: 0.816% |
| CCCCNC(=O)CNC(=S)N(Cc1cc(OC)c(OC)c(OC)c1)C1CCCC1 | inconclusive: 25.1 µM [activator, single point] | – |
| Cc1cc(NC(=O)CCCN2C(=O)/C(=C/c3cccs3)SC2=S)no1 | inconclusive: 31.6 µM [inhibitor, single point] | – |
| O=S(=O)(c1ccc(Cl)c(NC(=S)N/N=C/c2ccc(O)cc2)c1)N1CCOCC1 | inconclusive: 31.6 µM [inhibitor, single point] | – |
| O=C(NCc1ccco1)c1ccc(Cn2c(=O)c3ccccc3n(Cc3ccc(Cl)cc3)c2=O)cc1 | inconclusive: 25.1 µM [inhibitor, single point] | – |
| Cc1ccc(NC(=O)c2c(C)oc3ccc(O)c(CN4CCCCC4)c23)cc1 | – | inactive: -6.01% |
| Cn1c(C(=O)N2CCCC(C(=O)NCCCSC3CCCCC3)C2)cc2sccc21 (centres undefined) | inconclusive: 25.1 µM [activator, single point] | – |
| OCCNc1ncnc2c1c(-c1ccccc1)c(-c1ccccc1)n2Cc1ccco1 | inconclusive: 39.8 µM [activator, single point] | – |
